We go through 22 molecules from publication PMC12136788.

The other results are listed elsewhere or left out.

T1: UNK ZnF1-3 (human, UniProt Q9C0B0 31-174)
T1 sequence: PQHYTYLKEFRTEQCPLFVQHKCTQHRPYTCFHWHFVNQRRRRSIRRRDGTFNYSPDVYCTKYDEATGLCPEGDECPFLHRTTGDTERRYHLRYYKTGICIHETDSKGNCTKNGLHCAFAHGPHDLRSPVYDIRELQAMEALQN

B1: chr2:9572718:9572719:+_ENSG00000119203_ENST00000238112|hu_hu|FALSE|FALSE (ssRNA)
RNA: GGGAGUUCUACAGUCCGACGAUCGACGUGACCUGCAUGGUAACACCAAAACUUGAUUCCCGCAACUUCCUUAACUUCAUGAAAGUUGAUAGUUUCAAUUUUGUCCAUGCUUUCUUCCAAAUCUGUCUCGGUAUACAGCAUGUCCAACAGAGGAUUGAGCAUCA
B2: chr3:20008827:20008828:+_ENSMUSG00000002428_ENSMUST00000002502|mus_mus|FALSE|FALSE (ssRNA)
RNA: GGGAGUUCUACAGUCCGACGAUCUGAGGCUUUAAGAGGUGUUUCUAUUAAAGACAAGAAUGUGGUAAACUGAGAAACAACUAAACUUUUUAUGUUGGGGUCCUUUGUCCGUAAUUCAAUCAAAGCAUGCAUUAGAGCAUUAAUCAACAGAGGAUUGAGCAUCA
B3: 95327714_95327975_828_CDS_ENSMUSG00000034088_ENSMUST00000170883|mouse|control|control (ssRNA)
RNA: GGGAGUUCUACAGUCCGACGAUCCUCCACUUCUAGCCUCUCUACAGCACGCUUGUCCUGCUCAGCAGAGAUUAGGAGGACUUCAUGGCGAGCUUUCUCGAUGCCUUCUUUGGUGCCAGUGAUCUUGAUCUGAUUACUGGGGUCCAACAGAGGAUUGAGCAUCA
B4: chr1:169100865:169100866:+_ENSG00000143153_ENST00000367816|hu_hu|FALSE|FALSE (ssRNA)
RNA: GGGAGUUCUACAGUCCGACGAUCGUGUAAAGCAUAUAGAUUAAGUGUAGGUCCCAUACGUAUGACAGUUUGUUCAAGACUAGUAGGUUUUUGUUUUUGUAUCUUUUUUUAACUUAUUAAAUGGCUAGUGGGAAAGAUUUGUGCCAACAGAGGAUUGAGCAUCA
B5: chr4:17845017:17845018:+_ENSG00000109805_ENST00000514176|hu_mus|hu_hu_hu_mus_False|28_58 (ssRNA)
RNA: GGGAGUUCUACAGUCCGACGAUCGCUCUCUUAACUUGUAUCUUCAUUAAGGAACUCUGCAAGGUUAAGUUUACUUUUUCUAGUGCUAGCUGUUUUGGCUCGUCUGGUAGUCUCAUCCUUCAUUUCUGAUGGUGGUUCAUGAUCCAACAGAGGAUUGAGCAUCA
B6: chr2:179515052:179515053:+_ENSMUSG00000000305_ENSMUST00000000314|mus_hu|mus_mus_mus_hu_False|68_88 (ssRNA)
RNA: GGGAGUUCUACAGUCCGACGAUCGCUGUCCCAUGCAGUCACCGUGAAGGCCACCUGCUCGGAGGGGAUCUUCAACUCCCGGGUGGCGAAGACUGUCCCAUCUGCCCCAACUUUGAAGUCCAUGCUGUUGGUCUCAUAUUGUGUCAACAGAGGAUUGAGCAUCA
B7: chr9:14812383:14812384:-_ENSMUSG00000031934_ENSMUST00000164273|mus_mus|mus_mus_mus_hu_True|28_98 (ssRNA)
RNA: GGGAGUUCUACAGUCCGACGAUCAUAGCCCAGGUAGAUACAUGCCAACAGUAUAAUGAUGAGUGUCAGCAGGCGGCAGCUAAUGUACUUGAUGAUUAAAUUAUUAGAGUUCUUUUUUGUCUUCAAGUACUGCUCCACAAUUGGCAACAGAGGAUUGAGCAUCA
B8: chr7:56126341:56126342:+_ENSG00000146731_ENST00000540286|hu_mus|hu_hu_hu_mus_True|78_78 (ssRNA)
RNA: GGGAGUUCUACAGUCCGACGAUCCAUGUUUCUCCUCUUGGCUCUGCGCAGAGCUACUAUGCCUUCUUUCGCAAGGGCAUCUAAGGAAAAGGGGUCAAUCCCCUUUUGAUUAAUAACGACAAAUCCUUUAUCUGAGUCACCACACAACAGAGGAUUGAGCAUCA
B9: 111187709_111187950_928_CDS_ENSMUSG00000021701_ENSMUST00000022212|mouse|control|control (ssRNA)
RNA: GGGAGUUCUACAGUCCGACGAUCCGUUUCUUUCAGAUUUGUGGUUUCGAAUGGAGGUCUUCCUAGCAGCAUCGUAUACAUUACACAGCCUAAGGCCCAGAUGUCUGAUUCACAGCCGUGUCCUUGUUUGUUGAGGACUUCGGGCAACAGAGGAUUGAGCAUCA
B10: chr14:76904430:76904431:+_ENSMUSG00000022010_ENSMUST00000022587|mus_mus|mus_mus_mus_hu_True|18_68 (ssRNA)
RNA: GGGAGUUCUACAGUCCGACGAUCUGCAGCCAAAAACACCCUCGUGGAAAAAAAGAGGGAACACCAGCAGCCUGGUUUAAGCUAGAUAAAAUCUUCUGGCUUUCCGCAGCCCAGGGAGUGAGAACGGACGGCAGCCCUAAUUUACAACAGAGGAUUGAGCAUCA
B11: chr2:216981417:216981418:+_ENSG00000079246_ENST00000392132|hu_hu|hu_hu_hu_mus_True|18_18 (ssRNA)
RNA: GGGAGUUCUACAGUCCGACGAUCCUGAUACUGGUCCUUGCCAGCAAGGGCAUUAUCAGUGCCAUCUGUGCCAUAGAGGACUAACGCAAUCUCAUCUUUGCUCUCCGAAAAUACCUGUCGCUGUACAAACAUAGUCAUCACUUUCAACAGAGGAUUGAGCAUCA
B12: chr12:48362563:48362564:+_ENSG00000134291_ENST00000256686|hu_hu|hu_hu_hu_mus_False|48_98 (ssRNA)
RNA: GGGAGUUCUACAGUCCGACGAUCUCCGUCAAGCCCUUCAAGCCCCACUUGCGGGGGAAACUGUAAUCACUUUGUAUGGGGAAGGAAAAAAAAAGCCAAAAACUUUCCAAAAAGCGGGGGUGGGGUGAGGCGGGAGGGGGAGGUCAACAGAGGAUUGAGCAUCA
B13: chr8:127356239:127356240:+_ENSMUSG00000036913_ENSMUST00000167588|mus_mus|motif|central (ssRNA)
RNA: GGGAGUUCUACAGUCCGACGAUCCACCCUGCUAUCAGCAUAUUGCUCCCUGGCUCUGGAUUCCUUCAGGCCACAGGGCAGCGGAGGACAUUUUGGAACCACAUAAAGAUCUGAAGGUACAGCCUGGACCACACACGGUGUGAGCAACAGAGGAUUGAGCAUCA
B14: chr19:53983630:53983631:+_ENSMUSG00000024975_ENSMUST00000025931|mus_hu|FALSE|FALSE (ssRNA)
RNA: GGGAGUUCUACAGUCCGACGAUCAUUUCCAUUUAUUUCAUUCUUUAUUUCCUCAGUCCCAGCAUUUUCUUCAUCACCGGAAAAGAGAGAGUCACUUAAGUUAUCAGGAUCUGCAGGGUUUACAUUCAGUAUCUGCUCAUUUUCCAACAGAGGAUUGAGCAUCA
B15: 119142600_119142720_287_ncRNA_ENSMUSG00000041477_ENSMUST00000149651|mouse|control|control (ssRNA)
RNA: GGGAGUUCUACAGUCCGACGAUCUAACUGUGCUGAGAGGUGACUCUGCUUCAAGCACUUCACUUCUCAGGUAUAGGUCACAGUGACAGGACCUUGCCGUUCGAUGUGCGUUUCCAGAGACGACAGUUCUAUUGACGUGGCACUCAACAGAGGAUUGAGCAUCA
B16: chr17:30807568:30807569:+_ENSG00000108671_ENST00000457654|hu_mus|FALSE|FALSE (ssRNA)
RNA: GGGAGUUCUACAGUCCGACGAUCGUAGAGGGAGUCCACUACUUUACUCAUGUUCUGAAUAGUUUCCAGAGCAGCUUCAUAAGUUUUAUCUACUGGGGGUUCAUCGAAAAUGAUCAGGACACCCUCCCCCUGGUCCAAAAUCCCCAACAGAGGAUUGAGCAUCA
B17: chr4:123027775:123027776:-_ENSMUSG00000028649_ENSMUST00000154824|mus_mus|FALSE|FALSE (ssRNA)
RNA: GGGAGUUCUACAGUCCGACGAUCUUAUCUUGCUGAUAUAGCAAGUCAAGUUUAUAAAGAAGAUGCAUUUAGGAAUAAUCCUAAAAGAUAAAGCAGGUUUAUAACCCUGCACCACAUGAAACCCUAUUUAGAGGCUUUUCUUUUCAACAGAGGAUUGAGCAUCA
B18: 62659226_62659346_169_3pUTR_ENSMUSG00000032244_ENSMUST00000034775|mouse|control|control (ssRNA)
RNA: GGGAGUUCUACAGUCCGACGAUCGCGCCGCCGCCGUGUCCAGGCAGCAGCGCGACCCAGGGAGGGCGGAGACGCAGAGGUGGCCGAGCACCGCCGGAGGCACAAGUGGGACCCGGCCCGGGCGGGGAGAAGGACGGUCAGGGCCAACAGAGGAUUGAGCAUCA
B19: 3359495_3367888_967_CDS_ENSMUSG00000025899_ENSMUST00000053407|mouse|control|control (ssRNA)
RNA: GGGAGUUCUACAGUCCGACGAUCGGUAUCAAAUUUUCGAGGUGUAAUUCCAUGAGUCCAAAGGUAUCUAGAUUCUCCUGUCAUCACCAGCAAACUCCGACGAGGUAACAUAACUUGUACUGUGACACCCUCUGGAUGCUUGAACAACAGAGGAUUGAGCAUCA
B20: chr4:17845017:17845018:+_ENSG00000109805_ENST00000514176|hu_mus|hu_hu_hu_mus_False|18_28 (ssRNA)
RNA: GGGAGUUCUACAGUCCGACGAUCGCUCUCUUAACUUGUAUCUUCAUUAAGGAACUCUGCAAGGUUAAGUUUACUUUUCUGUAGCGCAGCUGUUUUGGCUCGUCUGGUAGUCUCAUCUUCAUUUCUGGAUGGUGGUUCAUGAUCCAACAGAGGAUUGAGCAUCA
B21: chr11:18503389:18503390:-_ENSG00000074319_ENST00000251968|hu_hu|hu_hu_hu_mus_True|38_48 (ssRNA)
RNA: GGGAGUUCUACAGUCCGACGAUCAUUUUCCAUUUUCUCCAGAGCAGAACUUAGUUCUUCAUCCUUCUUUUUCAAAAGUUCUAUGUUUUUAUCAACCUCGGCUACUUCUUGAUCUAAGCGGGUGACCAUCUCUUCCAGUUUCUGCAACAGAGGAUUGAGCAUCA
B22: 57373685_57373999_930_CDS_ENSG00000149131_ENST00000378324|human|control|control (ssRNA)
RNA: GGGAGUUCUACAGUCCGACGAUCAAUGAAAUGGGCCACAGGGUACUUCUUGCUAUUCAUCAUGGGCACUUUUAUAACUGAGUUUUUGAAGUGAAAGGGUUCCAUUCUGGUUUUCUUGGGAUCAAAUGUUGUCUUCCACUUGGCCAACAGAGGAUUGAGCAUCA

This experiment has as its target T1, UNK ZnF1-3. In words: nsRBNS (natural sequence RNA bind-n-seq); RBNS binding buffer (assumed for nsRBNS): 25 mM Tris pH 7.5, 150 mM KCl, 3 mM MgCl2, 0.01% Triton X-100, 500 ug/ml BSA, 20 U/ml SUPERase-In, 4 C; UNK is unkempt and MSI1 is Musashi-1; names of the RNAs are library labels; protein concentration not given here; high values mean tight binding.
Regarding B1, the binding signal came to 0.636 enrichment R. Under B2 stands 0.521 enrichment R. Under B3 stands 0.697 enrichment R; under B4, 1.84 enrichment R; under B5, 0.319 enrichment R.

B6: the binding signal came out at 0.848 enrichment R. Under B7 stands 1.7 enrichment R. Next, B8: 0.673 enrichment R.

Molecule B9 came in with a binding signal of 0.736 enrichment R. On to B10, for which the binding signal turned out to be 1.79 enrichment R.

The molecule B11 returned a binding signal of 0.819 enrichment R.

B12 returned a binding signal of 2.21 enrichment R. Under B13 stands 0.847 enrichment R; under B14, 0.855 enrichment R; under B15, 0.426 enrichment R. Under B16 stands 0.94 enrichment R; under B17, 0.62 enrichment R. B18 had a binding signal of 2.41 enrichment R.

On to B19, for which the binding signal turned out to be 1.67 enrichment R. Next, B20: 0.406 enrichment R.

In turn, B21 registered a binding signal of 0.432 enrichment R.

Take B22: the binding signal is 0.906 enrichment R.
